Measured values as given in the BET-seq Pho4 binding data (Le et al. 2018).
This is one part of the list. The energies were worked out here from pooled read counts, against the library average; single values are noisy.

molecular target: T1, Pho4 (S. cerevisiae) (UniProt P07270); experiment: relative binding free energy (BET-seq); higher = weaker binding; details: reference: library average
T1 sequence: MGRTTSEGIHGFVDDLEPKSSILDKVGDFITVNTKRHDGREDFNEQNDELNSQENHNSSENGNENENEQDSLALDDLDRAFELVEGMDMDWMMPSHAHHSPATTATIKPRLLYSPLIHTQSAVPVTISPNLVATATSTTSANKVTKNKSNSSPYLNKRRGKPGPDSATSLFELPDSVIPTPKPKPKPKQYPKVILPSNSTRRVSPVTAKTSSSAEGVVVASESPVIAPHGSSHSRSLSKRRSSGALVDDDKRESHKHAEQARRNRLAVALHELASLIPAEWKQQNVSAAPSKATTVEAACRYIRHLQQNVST

**Q.** How did the “relative binding free energy” value turn out when GTTTCCACGTGGGGAA was run?
**A.** 0.08 kcal/mol

**Q.** How did the “relative binding free energy” value turn out when ATTGGCACGTGAAATA was run?
**A.** 0.18 kcal/mol

**Q.** ACTAGCACGTGTTTTT was tested. Which “relative binding free energy” value did it give?
**A.** -0.09 kcal/mol

**Q.** For CTGGACACGTGTGTGC, which “relative binding free energy” value is on record?
**A.** 0.09 kcal/mol

**Q.** With GTGGTCACGTGCTGGT as the sequence, how does the “relative binding free energy” value read?
**A.** 0.06 kcal/mol

**Q.** With AGAATCACGTGTTGTT as the sequence, how does the “relative binding free energy” value read?
**A.** 0.21 kcal/mol

**Q.** With ATGCTCACGTGGGCGG as the sequence, how does the “relative binding free energy” value read?
**A.** -0.15 kcal/mol

**Q.** For CTTATCACGTGAGGGT, which “relative binding free energy” value is on record?
**A.** 0.25 kcal/mol

**Q.** Which “relative binding free energy” value does the source give for TCTGTCACGTGTGCTG here?
**A.** 0.05 kcal/mol

**Q.** For TGGAGCACGTGATGAT, which “relative binding free energy” value is on record?
**A.** 0.1 kcal/mol

**Q.** How did the “relative binding free energy” value turn out when TAAGTCACGTGGTGGT was run?
**A.** 0.02 kcal/mol

**Q.** ATTGGCACGTGTTAGG was tested. Which “relative binding free energy” value did it give?
**A.** -0.07 kcal/mol

**Q.** For TAGGACACGTGTTATG, which “relative binding free energy” value is on record?
**A.** 0.09 kcal/mol

**Q.** For TGGGTCACGTGAAAGC, which “relative binding free energy” value is on record?
**A.** 0.44 kcal/mol

**Q.** With TATGCCACGTGAGTTG as the sequence, how does the “relative binding free energy” value read?
**A.** 0.18 kcal/mol

**Q.** For GATCGCACGTGGGTGA, which “relative binding free energy” value is on record?
**A.** -0.13 kcal/mol

**Q.** With TGCGACACGTGTTTTG as the sequence, how does the “relative binding free energy” value read?
**A.** -0.11 kcal/mol

**Q.** TAGATCACGTGGGATG was tested. Which “relative binding free energy” value did it give?
**A.** -0.12 kcal/mol

**Q.** With GGCAGCACGTGGAAGG as the sequence, how does the “relative binding free energy” value read?
**A.** 0.02 kcal/mol

**Q.** With TGGTACACGTGAAGAT as the sequence, how does the “relative binding free energy” value read?
**A.** 0.23 kcal/mol

**Q.** With TGGAGCACGTGCGGAT as the sequence, how does the “relative binding free energy” value read?
**A.** -0.08 kcal/mol

**Q.** How did the “relative binding free energy” value turn out when TGTGACACGTGTTGCT was run?
**A.** 0.03 kcal/mol

**Q.** For TAGGGCACGTGGATTT, which “relative binding free energy” value is on record?
**A.** -0.03 kcal/mol

**Q.** With TCGGTCACGTGGTCTT as the sequence, how does the “relative binding free energy” value read?
**A.** 0.19 kcal/mol

**Q.** With TAGACCACGTGTGTTT as the sequence, how does the “relative binding free energy” value read?
**A.** -0.02 kcal/mol

**Q.** Which “relative binding free energy” value does the source give for TCTGGCACGTGTTTGT here?
**A.** -0.1 kcal/mol

**Q.** With GAGCTCACGTGGGGCG as the sequence, how does the “relative binding free energy” value read?
**A.** 0.33 kcal/mol

**Q.** With TTGGCCACGTGGTCGT as the sequence, how does the “relative binding free energy” value read?
**A.** -0.11 kcal/mol

**Q.** How did the “relative binding free energy” value turn out when TTTATCACGTGAGAGA was run?
**A.** 0.28 kcal/mol

**Q.** How did the “relative binding free energy” value turn out when TATAACACGTGGTGCG was run?
**A.** -0.06 kcal/mol

**Q.** Which “relative binding free energy” value does the source give for GTATACACGTGAAGGG here?
**A.** 0.23 kcal/mol

**Q.** With GATGTCACGTGTGCGT as the sequence, how does the “relative binding free energy” value read?
**A.** 0.06 kcal/mol

**Q.** TGAGGCACGTGTTGCT was tested. Which “relative binding free energy” value did it give?
**A.** 0 kcal/mol

**Q.** GGGGTCACGTGTAGGT was tested. Which “relative binding free energy” value did it give?
**A.** 0.23 kcal/mol

**Q.** Which “relative binding free energy” value does the source give for AAGCGCACGTGTCGGG here?
**A.** -0.03 kcal/mol

**Q.** For TTGAACACGTGATGTG, which “relative binding free energy” value is on record?
**A.** 0.19 kcal/mol

**Q.** With TATGCCACGTGAGGTT as the sequence, how does the “relative binding free energy” value read?
**A.** 0.15 kcal/mol

**Q.** With TTTAACACGTGTTGAA as the sequence, how does the “relative binding free energy” value read?
**A.** 0.01 kcal/mol

**Q.** TCGGACACGTGAAGGG was tested. Which “relative binding free energy” value did it give?
**A.** 0.19 kcal/mol

**Q.** With ATGGGCACGTGGATAA as the sequence, how does the “relative binding free energy” value read?
**A.** -0.18 kcal/mol

**Q.** For TGGTACACGTGTGTCG, which “relative binding free energy” value is on record?
**A.** 0.08 kcal/mol

**Q.** AGGTTCACGTGTTTCA was tested. Which “relative binding free energy” value did it give?
**A.** 0.32 kcal/mol

**Q.** For TCGGGCACGTGTTATA, which “relative binding free energy” value is on record?
**A.** -0.24 kcal/mol

**Q.** How did the “relative binding free energy” value turn out when GAATTCACGTGTGGTC was run?
**A.** 0.4 kcal/mol

**Q.** Which “relative binding free energy” value does the source give for GAGGGCACGTGTCTTG here?
**A.** -0.02 kcal/mol

**Q.** How did the “relative binding free energy” value turn out when TCTTTCACGTGAAGTA was run?
**A.** 0.31 kcal/mol

**Q.** Which “relative binding free energy” value does the source give for TGGCTCACGTGGGGAT here?
**A.** 0.1 kcal/mol

**Q.** Which “relative binding free energy” value does the source give for TGACGCACGTGGTCGG here?
**A.** -0.29 kcal/mol

**Q.** Which “relative binding free energy” value does the source give for GTGTACACGTGCATTT here?
**A.** 0.05 kcal/mol

**Q.** With ACTATCACGTGATGTT as the sequence, how does the “relative binding free energy” value read?
**A.** 0.16 kcal/mol

**Q.** How did the “relative binding free energy” value turn out when TAGAGCACGTGGGGTA was run?
**A.** -0.26 kcal/mol

**Q.** CTGACCACGTGGTGGG was tested. Which “relative binding free energy” value did it give?
**A.** -0.24 kcal/mol

**Q.** With AGGGGCACGTGTGAGT as the sequence, how does the “relative binding free energy” value read?
**A.** -0.05 kcal/mol

**Q.** How did the “relative binding free energy” value turn out when AGGGACACGTGGAGGA was run?
**A.** 0.12 kcal/mol

**Q.** Which “relative binding free energy” value does the source give for CACTTCACGTGTTTGG here?
**A.** 0.24 kcal/mol

**Q.** With CAAGGCACGTGTTAGG as the sequence, how does the “relative binding free energy” value read?
**A.** -0.06 kcal/mol

**Q.** Which “relative binding free energy” value does the source give for AGGAACACGTGTGTTT here?
**A.** 0.05 kcal/mol

**Q.** Which “relative binding free energy” value does the source give for TCGGTCACGTGGAAGA here?
**A.** 0.32 kcal/mol

**Q.** With AAGGGCACGTGGGTAT as the sequence, how does the “relative binding free energy” value read?
**A.** -0.22 kcal/mol

**Q.** How did the “relative binding free energy” value turn out when ATGGTCACGTGGTATA was run?
**A.** 0.11 kcal/mol

**Q.** Which “relative binding free energy” value does the source give for TTAGCCACGTGGTTTT here?
**A.** -0.03 kcal/mol

**Q.** How did the “relative binding free energy” value turn out when TTGAACACGTGGTCGG was run?
**A.** -0.08 kcal/mol

**Q.** With GTTGACACGTGTGCAT as the sequence, how does the “relative binding free energy” value read?
**A.** 0.02 kcal/mol
